The text below walks through data of PubChem BioAssay AID1745853 (National Center for Advancing Translational Sciences (NCATS), 2022).

Some of the results follow. The main result of the screen is listed elsewhere. These columns were measured beside it and carry no call.

Common to all, as to assay: Primary Screen for Target Class Profiling of Small Molecule Inhibitors of Methyltransferases
Test [1] has as its target Glycine N-methyltransferase (Homo sapiens) (UniProt Q14749). As to conditions: purified enzyme, MTase-Glo SAH luminescence; measured here: GNMT inhibition; at 40 µM; stronger effect = lower value. From the text:
(§1) PI: Matthew D. Hall Ph.D. and Quinlin M. Hanson Ph.D.
(§2) National Center for Advancing Translational Sciences (NCATS)
(§3) National Institute of Health (NIH), Rockville, MD
(§4) Target class profiling (TCP) is a chemical biology approach amenable to investigating understudied biological targets. TCP is achieved by developing a generalizable assay platform and applying it to screen a curated set of compound libraries against representative members of a target class. Small molecule methyltransferases (SMMTase) are a subclass of methyltransferase that act on metabolites to modulate signaling pathways, metabolize xenobiotics, or balance the available methyl pool. We screened four curated libraries totaling 27,574 unique compounds against the SMMTases nicotinamide N-methyltransferase (NNMT), phenylethanolamine N-methyltransferase (PNMT), histamine N-methyltransferase (HNMT), glycine N-methyltransferase (GNMT), catechol O-methyltransferase (COMT), and guanidinoacetate N-methyltransferase (GAMT). The data generated by this TCP can be leveraged for informed tool molecule development. For example, in the associated publication we identified a chemotype of HNMT-selective inhibitors. Additionally, we identified a putative SMMTase-selective inhibitor with potential as a tool molecule for studying broader methyltransferase biology.
(§5) High-through put screening assays were developed at the National Center for Advancing Translational Science (NCATS) for the enzymes NNMT, PNMT, HNMT, GNMT, COMT, and GAMT. Enzymatic activity was measured as a function of SAM cofactor conversion using the MTase Glo kit (Promega) for all enzymes. All assays were performed in 1536-well format with substrates and SAM concentrations at KM values. Enzyme concentration and assay timing were optimized for 10-20% SAM conversion. Initial screening of 27,574 compounds was done as single-point assays using the highest compound concentration (40 uM). […] These compounds were replated in 11-point dose response and assayed against NNMT, PNMT, HNMT, GNMT, COMT, GAMT, and a counter-assay. The IC50 and efficacy (maximal response) values were determined for each dose-response curve. These values are also accounted for in the area under the curve (AUC) values.
(§6) PROTOCOL TABLE (as described by Inglese J, Shamu CE and Guy RK. 2007)
(§7) SEQUENCE No. (e.g., 1, 2, 3, etc.); […] (e.g., Cells, Incubation, Reagent, etc.); VALUE; DESCRIPTION.
(§8) 1; Reagent; 2 uL; SMMTase Enzyme (2x) in reaction buffer, columns 1- 48.
(§9) 2; Reagent; 1 uL; SAM (4x) in reaction buffer, columns 1-48.
(§10) 3; Controls; 23 nL; DMSO in column 4; sinefungin in DMSO (0 uM - 40 uM) in 7-point 1:2 dilution series (n = 2) in column 2.
(§11) 4; Compounds; 23 nL; Columns 5-48.
(§12) 5; Reagent; 1 uL; Substrate (4x) in reaction buffer, columns 2-48.
(§13) 6; Time; 20-30 min; Incubation.
(§14) 7; Reagent; 1 uL; MTase-Glo reagent (5X), columns 1-48.
(§15) 8; Time; 30 min; Incubation.
(§16) 9; Reagent; 5 uL; MTase-Glo Detection reagent, columns 1-48.
(§17) 10; Time; 30 min; Incubation, luminescence evolution.
(§18) 11; Detection; Luminescence; ViewLux uHTS Microplate Imager (PerkinElmer).
(§19) NOTES (numbers refer to Sequence numbers above)
(§20) 1, 2, 5. White Medium Binding Greiner 1536-well plates (Cat #789175-F, Greiner Bio-One, Monroe, NC); Reaction buffer: 50 mM Tris, pH 8.0, 3 mM MgCl2, 1 mM EDTA, 50 mM NaCl, 1 mM DTT, and 0.1 mg/mL BSA. Evaporation was prevented by covering assay plates with metal lids containing holes to allow gas diffusion.
(§21) 1. Six SMMTase were profiled: HNMT, GNMT, PNMT, COMT, NNMT, GAMT
(§22) 5. The corresponding substrate was used for each enzyme: HNMT - 5.3 uM Histamine; GNMT - >500 uM Glycine; PNMT - 16.2 uM Norephinephrine; COMT - 13.7 uM Norephinephrine; NNMT - 3.8 uM Nicotinamide; GAMT - 2.5 uM Guanidinoacetate.6, 8, 10. Room temperature
(§23) 6. Final reaction conditions: 10 nM COMT, 5 uM SAM, 15 uM norepinephrine, 50 mM Tris, pH 8.0, 3 mM MgCl2, 1 mM EDTA, 50 mM NaCl, 1 mM DTT, and 0.1 mg/mL BSA; refer to tables 2 and S1 for specific timing.
8. […]

In test [2] the target is Guanidinoacetate N-methyltransferase (Homo sapiens) (UniProt Q14353). The following applies: purified enzyme, MTase-Glo SAH luminescence; measured here: GAMT inhibition; at 40 µM; stronger effect = lower value.
From the text: as §1, §2, §3, §4, §5, §6, §7, §8, §9, §10, §11, §12, §13, §14, §15, §16, §17, §18, §19, §20, §21, §22, §23
8. […]

For test [3], the target named is Histamine N-methyltransferase (Homo sapiens) (UniProt P50135). The following applies: purified enzyme, MTase-Glo SAH luminescence; measured here: HNMT inhibition; at 40 µM; stronger effect = lower value.
From the text: as §1, §2, §3, §4, §5, §6, §7, §8, §9, §10, §11, §12, §13, §14, §15, §16, §17, §18, §19, §20, §21, §22, §23
8. […]

Test [4] deals with Nicotinamide N-methyltransferase (Homo sapiens) (UniProt P40261). As to conditions: purified enzyme, MTase-Glo SAH luminescence; measured here: NNMT inhibition; at 40 µM; stronger effect = lower value.
From the text: as §1, §2, §3, §4, §5, §6, §7, §8, §9, §10, §11, §12, §13, §14, §15, §16, §17, §18, §19, §20, §21, §22, §23
8. […]

The target of test [5] is Phenylethanolamine N-methyltransferase (Homo sapiens) (UniProt P11086). The following applies: purified enzyme, MTase-Glo SAH luminescence; measured here: PNMT inhibition; at 40 µM; stronger effect = lower value.
From the text: as §1, §2, §3, §4, §5, §6, §7, §8, §9, §10, §11, §12, §13, §14, §15, §16, §17, §18, §19, §20, §21, §22, §23
8. […]
% is set by controls: 0 for no effect and ±100 for the full control effect.

As to `CCCCNC(=O)Cn1ccc2cc(S(=O)(=O)N3CCCCC3)ccc21`, the activity change, negative = inhibition in test [1] is 1.5%; in test [2] it was 0.38%; in test [3], -5.45%; in test [4], 1.28%; in test [5] it was -2.31%.
The like results for `NCCCCNCCCN` were, in that order, 10.9%, 11.6%, 14.2%, -1.9% and 0.249%.
Take `CC(c1ccc(-c2ccc(CC(=O)O)cn2)cc1)N1CCCCC1` (configuration not stated): the activity change, negative = inhibition was -5.77% in test [1]; -10.8% in test [2]; -9.88% in test [3]; -15.6% in test [4]; -11.3% in test [5].
The like results for `COc1ccc(CNC(=O)c2ccc3c(=O)n(-c4ccc(F)cc4)c4nnc(C)n4c3c2)cc1` were, in that order, -6.51%, 0%, -3.74%, 3.45% and -4.76%.
For the molecule `C[C@H](O)[C@@H]1C(=O)N2C(C(=O)O)=C(S[C@@H]3CN[C@H](CNS(N)(=O)=O)C3)[C@@H](C)[C@@H]12`, the activity change, negative = inhibition in test [1] was -12%; in test [3] it was 1.99%.
On to `COC(=O)Nc1ccc(-c2nc(N3CCOCC3)c3cnn(C4CCN(Cc5cccnc5)CC4)c3n2)cc1`, for which the activity change, negative = inhibition was -32.8% in test [1]; 6.94% in test [2]; -12.6% in test [3]; -17.6% in test [4]; -11.2% in test [5].
In the same order, the values of `CCn1nc2n(c1=O)CCN(Cc1cc(C)ccc1C)C2=O` are -0.004%, 0.635%, -0.792%, -1.44% and -1.93%.
In the same order, the values of `O=C(Cc1ccc(-c2ccc(OCCN3CCOCC3)cc2)cn1)NCc1ccccc1` are 0.255%, -2.45%, 6.16%, -10.1% and 0.929%.
In the same order, the values of `CCCN1C(=O)c2ccc(-c3ccccc3)n2CC1(C)C(=O)NC1CCCCCCC1` (configuration not stated) are -9.69%, -1.23%, -4.43%, -4.92% and -4.99%.
Take `CC(C)CNC(=O)c1ccc2c(=O)n(C(C)C)c3nn(C)c(=O)n3c2c1`: the activity change, negative = inhibition was 5.81% in test [1]; 1.02% in test [2]; 12.7% in test [3]; 3.62% in test [4]; -1.18% in test [5].
In the case of `Cc1ccc(Nc2ccn3c(=O)n(CC(=O)Nc4ccc(C)c(F)c4)nc3n2)cc1`, the activity change, negative = inhibition in test [1] is -3.38%; in test [2], 4.88%; in test [3] it was -6.75%; in test [4], -5.4%; in test [5] it was -4.27%.
For the molecule `CCCn1c(=O)c2ccc(C(=O)NCC(C)C)cc2n2c(=O)n(CC(=O)NCc3ccc(C)cc3)nc12`, the activity change, negative = inhibition in test [1] is 7.05%; in test [2] it was 2.65%; in test [3], 7.44%; in test [4], 6.64%; in test [5], 7.67%.
Regarding `CC(C)OCCCn1c(=O)c2cc(Cl)ccc2n2c(SCc3cccc(Cl)c3)nnc12`, the activity change, negative = inhibition in test [1] is -2.33%; in test [2] it was 0%; in test [3] it was 5.26%; in test [4], -6.23%; in test [5], 1.99%.
The like results for `COc1ccc(CNC(=O)CCCc2nnc3n4nc(-c5ccccc5)nc4c4ccccc4n23)cc1` were, in that order, -10.3%, 0%, 2.64%, 6.18% and -1.08%.
The like results for `Cc1ccc(Cn2nc3n(C(C)C)c(=O)c4ccc(C(=O)NC5CCCC5)cc4n3c2=O)cc1` were, in that order, 2.31%, 4.32%, -0.176%, 3.06% and 3.11%.
The like results for `O=S(=O)(Nc1cccnc1)c1ccc(Cl)c(-c2nnc(-c3ccccc3)o2)c1` were, in that order, -1.2%, 2.04%, 13.5%, 5.52% and 7.5%.
